# Test results taken from publication PMC4336329 (PLoS ONE, 2015).
# In all, about 310,000 compounds went through this assay and about 2,200 (0.71%) showed an effect of 50% or more. The effect is printed as a negative number. The list shows a part of the results.
# Biological target: human ether-à-go-go-related gene (hERG) potassium channel (human, UniProt Q12809)
# Assay: primary screen, population patch clamp on CHO cells stably expressing hERG
# human ether-à-go-go-related gene (hERG) potassium channel, sequence (Q12809 whole entry, looked up): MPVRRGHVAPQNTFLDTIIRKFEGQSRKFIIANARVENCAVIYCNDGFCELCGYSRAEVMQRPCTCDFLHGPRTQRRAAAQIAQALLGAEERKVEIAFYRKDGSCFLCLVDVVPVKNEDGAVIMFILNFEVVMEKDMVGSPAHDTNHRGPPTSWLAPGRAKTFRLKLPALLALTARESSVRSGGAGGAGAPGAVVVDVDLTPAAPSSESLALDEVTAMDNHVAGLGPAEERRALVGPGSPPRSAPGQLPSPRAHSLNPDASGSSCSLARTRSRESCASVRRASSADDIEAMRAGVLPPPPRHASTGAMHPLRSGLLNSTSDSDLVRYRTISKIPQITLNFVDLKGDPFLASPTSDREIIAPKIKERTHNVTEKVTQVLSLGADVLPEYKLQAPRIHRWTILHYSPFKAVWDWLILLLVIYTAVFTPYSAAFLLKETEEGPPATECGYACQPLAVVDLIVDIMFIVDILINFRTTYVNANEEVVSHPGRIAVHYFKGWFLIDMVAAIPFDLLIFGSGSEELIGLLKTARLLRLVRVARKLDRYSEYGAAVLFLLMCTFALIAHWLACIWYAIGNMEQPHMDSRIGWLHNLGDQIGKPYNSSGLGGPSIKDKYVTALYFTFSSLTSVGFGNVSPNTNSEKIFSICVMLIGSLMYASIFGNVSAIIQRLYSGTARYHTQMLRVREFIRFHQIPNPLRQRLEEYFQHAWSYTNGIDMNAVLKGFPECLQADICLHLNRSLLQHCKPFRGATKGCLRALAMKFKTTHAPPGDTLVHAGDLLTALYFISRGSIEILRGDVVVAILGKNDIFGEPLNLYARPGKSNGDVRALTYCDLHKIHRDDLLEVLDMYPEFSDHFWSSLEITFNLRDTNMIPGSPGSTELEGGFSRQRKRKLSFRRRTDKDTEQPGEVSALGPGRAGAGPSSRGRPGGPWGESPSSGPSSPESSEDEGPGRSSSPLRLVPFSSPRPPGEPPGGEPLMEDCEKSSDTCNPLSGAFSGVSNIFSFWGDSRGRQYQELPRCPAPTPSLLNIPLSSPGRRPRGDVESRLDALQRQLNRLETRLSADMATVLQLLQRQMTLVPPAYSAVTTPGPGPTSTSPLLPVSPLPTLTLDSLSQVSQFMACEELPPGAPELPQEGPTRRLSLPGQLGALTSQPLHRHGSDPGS
row,Structure (SMILES),"hERG current change (%, negative = inhibition) at 1uM"
1,CCOC(=O)c1cc(NC(=O)N2CCOCC2)c(C)nc1C,5.75%
2,O=C(Cc1ccccc1F)OCC(=O)N1CCc2ccccc21,5.45%
3,CCN(CC)S(=O)(=O)c1ccc(/C(O)=C(\C#N)c2nc3ccccc3n2C)cc1,-0.574%
4,O=C(NC(=S)N1CCN(C/C=C/c2ccccc2)CC1)c1c(F)cccc1F,2.6%
5,CCOc1ccc(OCCOCCn2ccnc2)cc1,10.6%
6,CC(c1ccccc1)n1cnc2ccccc21 (stereo not shown),13.5%
7,COC(=O)c1cc(OC)c(OC)cc1NC(=O)CN1C(=O)c2ccccc2C1=O,-4.66%
8,CN(C)C(CNC(=O)Cc1cccc(C(F)(F)F)c1)c1ccccc1 (stereo not shown),7.99%
9,COc1ccc(NC(=O)Nc2cc(C)ccc2OC(F)F)c(OC)c1,4.33%
10,CCOC(=O)C(=Cc1ccccc1OC)C(=O)OCC,-2.59%
11,CCOC(=O)CCCc1ccc(/C(C)=N/NC(=S)NC)cc1,12.6%
12,CCOC(=O)c1ccc2c(c1)nc(SCC(=O)N1CCCCC1)n2CC,-1.04%
13,Cc1c(Br)c([N+](=O)[O-])nn1C(C)C(=O)Nc1ccc2c(c1)OCO2 (stereo not shown),-0.696%
14,CCCCCc1ccc(C(=O)CCCC)c(=S)[nH]1,11.8%
15,COc1ccc(N(CC(=O)NCc2ccco2)S(=O)(=O)c2ccccc2)cc1,7.59%
16,CCCNC(=O)c1ccc(CNc2c(N3CCC(C(=O)OCC)CC3)c(=O)c2=O)cc1,10.9%
17,O=C(CSc1nnc(CNC(=O)c2ccccc2F)o1)c1ccccc1,-4.77%
18,O=C(c1ccc2c(Cl)c3c(nc2c1)CCCC3)N1CCC(N2CCCCC2)CC1,-12.6%
19,CCOCCCNC(=O)C1CCN(S(=O)(=O)N2CC(C)CC(C)C2)CC1 (stereo not shown),20.9%
20,O=C(CCc1ccc(O)c(O)c1)N/N=C/c1ccc2c(c1)OCO2,4.77%

row,Structure (SMILES),"hERG current change (%, negative = inhibition) at 1uM"
1,COC(=O)C1=C(c2ccc(Cl)c(C(F)(F)F)c2)C[C@@H]2CC[C@H]1N2C(=O)N1CCCC1,5.61%
2,Nc1nc(N)nc(-c2ccc(Cl)cc2)n1,5.35%
3,CN(C)C(CNC(=O)CSc1nc2ccccc2c(=O)n1Cc1ccco1)c1ccccc1 (stereo not shown),-6.81%
4,O=S(=O)(Nc1ncccn1)c1ccc(NC(=S)Nc2ccc(Cl)cc2)cc1,9.66%
5,Cc1cc(C(=O)N/N=C/c2cn(C)nc2C)c2ccccc2n1,5.11%
6,Cc1ccc2[nH]c(=O)c3cc(C(=O)NCC4CCCO4)sc3c2c1 (stereo not shown),5.31%
7,COc1ccc(N2CCN(C(=O)c3ccc4[nH]c(C)c(C)c4c3)CC2)cc1,15.1%
8,Cn1c(SCC(=O)Nc2ccccc2)nnc1C(F)(F)F,9.84%
9,COC(=O)C1=C(C)N(c2ccc(Cl)cc2)/C(=C/c2ccc(O)cc2)C1=O,16.2%
10,CC(C)c1ccc(/C=N/NC(=O)c2c(Cl)cnn2C)cc1,6.86%
11,CCCCC(CC)CNC(=O)CC1Nc2c3ccccc3nc(=S)n2C1=O (stereo not shown),12.2%
12,Cc1ccc(C(=O)Nc2oc(-c3ccccc3)cc2C#N)cc1,14.5%
13,Cn1nc(CC(=O)Nc2cccnc2N2CCOCC2)c2ccccc2c1=O,-0.663%
14,CCC1CCCCN1C(=O)N[C@@H](Cc1ccccc1)C(=O)O (stereo partly shown),15.1%
15,O=C(CN(Cc1ccccc1)S(=O)(=O)c1ccccc1)NC1CC1,5.25%
16,COc1cccc2c(N/N=C/c3ccccc3)cc(C)nc12,5.33%
17,NC(=O)c1ccc(NC(=O)Nc2ccc3c(c2)OCO3)cc1,16.4%
18,CCOc1ccc(C(=O)CSc2nnc(N)s2)cc1,6.56%
19,Cc1cc(Br)ccc1NC(=O)CN(C)C(=O)Cn1c(=O)cnc2ccccc21,6.85%
20,Nn1c(SCC(=O)Nc2ccc3c(c2)OCO3)nnc1C1CCCCC1,5.34%

row,Structure (SMILES),"hERG current change (%, negative = inhibition) at 1uM"
1,CC(Oc1ccccc1)C(=O)Nc1nnc(S(=O)(=O)N2CCCCCC2)s1 (stereo not shown),11.4%
2,COc1ccc(CCNC(=O)C(=O)NCCOc2ccccc2Cl)cc1OC,31.8%
3,N#CC1=C(N)N(c2ccc(Br)cc2)C2=C(C(=O)CCC2)C1c1cccnc1 (stereo not shown),-6.1%
4,COC(=O)C1=C(C)NC(C)=C(C(=O)OC)C1c1ccccn1,9.97%
5,COc1cc(C(=O)NCCN2CCCC2)cc(OC)c1OC.Cl,11.7%
6,CCOc1ccccc1C(=O)NC(C)c1ccc2c(c1)OCO2 (stereo not shown),-4.7%
7,CCOC(=O)C(C)NC(=O)c1cn(-c2ccc(OC)cc2)c(=O)c2ccccc12 (stereo not shown),15.9%
8,CCC(=O)Nc1ccc(-c2ccc(NC(=O)CC)c(OC)c2)cc1OC,10.9%
9,CCCS(=O)(=O)N1CCCC(C(=O)NCC(OC)OC)C1 (stereo not shown),17.1%
10,O=C(NC(=S)N1CCCC1)c1ccccc1Cl,14.9%
11,O=C(CCC1CCCC1)Nc1ccc(C(=O)NCc2cccnc2)cc1,-1.9%
12,Cn1cnc(S(=O)(=O)NCc2ccccc2)c1,8.31%
13,O.Oc1cc(O)c2c(c1)O[C@H](c1ccc(O)c(O)c1)[C@@H](O)C2,13.5%
14,COC(=O)Cn1c(=NC(=O)C2CC2)sc2c(C)cc(C)cc21,12.1%
15,Cc1ccc(C(=O)NCC(=O)NCCSc2ccc(Br)cc2)cc1,0.26%
16,O=C(NCc1ccc2c(c1)OCO2)c1cc([N+](=O)[O-])ccc1N1CCCCC1,7.22%
17,O=C(Nc1ccccc1)c1ccc(CSc2ncccn2)cc1,17.7%
18,Cc1ccc(-n2ncc3c(=O)n(CC(N)=O)cnc32)cc1,15%
